In PubChem BioAssay AID1030 (National Center for Advancing Translational Sciences (NCATS), 2008):
In all, about 220,000 compounds went through this assay and about 16,000 (7.3%) were called active. This list was built around the results that the source calls inconclusive (neither active nor inactive); the mix of calls is not that of the screen. The call rests on the fitted dose curve; in most records, active means well fitted inhibition curve with a large enough effect (not every such curve was filed as active); inconclusive means small, poorly fitted or top-dose-only effect, or another doubt; inactive means no such curve, though single readings can be large or run the other way. No potency is given beside an inconclusive call; the fits are too rough.

target: Aldehyde dehydrogenase 1A1 (Homo sapiens) (UniProt P00352); assay: qHTS Assay for Inhibitors of Aldehyde Dehydrogenase 1 (ALDH1A1); settings: Purified ALDH1A1, NADH fluorescence, propionaldehyde substrate; series mostly up to 75.3 µM
Potency means the concentration at half of the fitted maximal effect; tags describe the fitted curve by direction and shape.

Sequence of UniProt P00352 (P00352 whole entry, looked up): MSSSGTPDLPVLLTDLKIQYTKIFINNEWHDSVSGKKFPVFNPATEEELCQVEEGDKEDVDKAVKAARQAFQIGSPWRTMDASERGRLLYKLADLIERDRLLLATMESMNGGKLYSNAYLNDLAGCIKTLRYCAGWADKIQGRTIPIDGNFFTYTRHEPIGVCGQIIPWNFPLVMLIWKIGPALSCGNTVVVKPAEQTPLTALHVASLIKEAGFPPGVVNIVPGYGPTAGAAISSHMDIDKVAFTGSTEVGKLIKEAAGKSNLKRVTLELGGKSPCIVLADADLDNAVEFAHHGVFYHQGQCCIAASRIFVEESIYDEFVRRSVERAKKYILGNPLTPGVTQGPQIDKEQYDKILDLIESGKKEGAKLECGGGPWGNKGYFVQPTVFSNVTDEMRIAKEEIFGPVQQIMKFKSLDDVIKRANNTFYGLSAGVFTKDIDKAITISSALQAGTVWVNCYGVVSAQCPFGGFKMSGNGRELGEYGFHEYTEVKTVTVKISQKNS

| Compound | Potency |
| --- | --- |
| Cc1nnc(-c2cnn(-c3ccccc3)c2N)n1Cc1cccc(C(F)(F)F)c1 | inconclusive [inhibitor, single point] |
| Cc1ccccc1CSCc1nc(N)nc(Nc2ccccc2C)n1 | inconclusive [inhibitor, single point] |
| Cc1nc(N)sc1C(=O)N/N=C/c1c[nH]c2ccccc12 | inconclusive [inhibitor, partial curve] |
| Nc1ccc(C23CC4CC(CC(CO)(C4)C2)C3)cc1 | active: 11.2 µM |
| CCn1nc(NC(=O)c2ccccn2)c2cc3cc(C)ccc3nc21 | inconclusive [inhibitor, partial curve] |
| O=C(CCCc1c[nH]c2ccccc12)Nc1ccc2ccccc2c1 | inactive |
| O=C(NC(=S)N1CCCc2ccccc21)c1ccc([N+](=O)[O-])cc1 | active: 11.2 µM |
| COc1ccc(/C=C/C(=O)Nc2ccc(OC)cc2[N+](=O)[O-])cc1 | inactive |
| CCNC(=S)N/N=C/c1ccc(-c2ccccc2)o1 | inconclusive [inhibitor, single point] |
| COc1ccccc1NS(=O)(=O)c1ccc(O)c(C(N)=O)c1 | inconclusive [inhibitor, single point] |
| NC(=O)c1sc2nccc(Nc3ccccc3)c2c1N | inconclusive [inhibitor, single point] |
| CCOC(=O)c1[nH]c(C)c(/C(O)=C2\C(=O)C(=O)N(CCN3CCOCC3)C2c2cccs2)c1C (stereo not given) | inconclusive [inhibitor, single point] |
| COc1ccc(/C=N/NS(=O)(=O)c2ccc(C)cc2)cc1OC(=O)c1ccc(C)cc1 | inconclusive [inhibitor, single point] |
| Cc1ccc(F)cc1NC(=O)CN1CCN(c2ccccn2)CC1 | inactive |
| CCN(CC)Cc1c(NC(=O)c2ccccc2)sc(C)c1C | inconclusive [inhibitor, single point] |
| CCCn1ncc(CN2CCC(CO)(CC3CCCCO3)CC2)c1C (stereo not given) | inactive |
| Cc1ccc(NC(=O)CN(C)C(=O)Cn2ncc(Cl)c(Cl)c2=O)cc1 | active: 28.2 µM |
| CSc1nc2sc3c(c2c(=O)[nH]1)CCCC3 | inconclusive [inhibitor, partial curve] |
| COc1cccc(-n2c(=O)c3cc(OC)c(OC)cc3n(CC(=O)Nc3cc(C)[nH]n3)c2=O)c1 | inconclusive [inhibitor, single point] |
| CCCn1c(C)nc2c(NCCCN3CCCCC3C)nc(C)nc21 (stereo not given) | inactive |
